# Test results published in the supplement of paper PMC7826260.
# Some of the results follow. Viral Rep nickase domains cut single-stranded DNA in vitro at 3 µM enzyme and 37 °C for 1 h; the strands have 90 letters, of which the middle is given. Numbers give uncut DNA relative to the enzyme-free pool, as log2; strong cutting gives strongly negative numbers. There is no active / inactive call. Because reads are shares of a total, they shift together, so uncut sequences can rise above 0 when many others are cut.
# Legend:
# Assay in all cases: uncleaved DNA left, log2 of reads against the no-enzyme library (log2 ratio); higher = less cleavage (more negative = more Rep cleavage of the k-mer); sequences stand for … in CTCGTCCG…ACCGGAGA
# [1] = tested on: T1, Rep nickase domain of Muscovy duck circovirus
# T1 sequence (residues 1-111 of Rep, tag left off): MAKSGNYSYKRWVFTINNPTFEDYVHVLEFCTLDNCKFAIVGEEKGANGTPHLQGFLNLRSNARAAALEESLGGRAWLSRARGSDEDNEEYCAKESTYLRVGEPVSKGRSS
# Description: (§1)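 A pool of 90-nt single-stranded DNAs with seven random bases just before the constant AC of the nick site (name = the seven bases) was cut by 3 µM recombinant His6-SUMO-tagged Rep nickase domain (300 nM DNA, 50 mM HEPES pH 8.0, 50 mM NaCl, 1 mM MnCl2, 1 h, 37 °C, three replicates). Uncut DNA was amplified and sequenced.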
# [2] = tested on: T2, Rep nickase domain of banana bunchy top virus
# T2 sequence (residues 1-94 of Rep, tag left off): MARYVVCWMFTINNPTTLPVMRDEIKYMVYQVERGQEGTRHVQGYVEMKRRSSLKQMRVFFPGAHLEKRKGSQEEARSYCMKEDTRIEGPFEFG
# Description: as §1
# [3] = tested on: T3, Rep nickase domain of cabbage leaf curl virus
# T3 sequence (residues 1-116 of Rep, tag left off): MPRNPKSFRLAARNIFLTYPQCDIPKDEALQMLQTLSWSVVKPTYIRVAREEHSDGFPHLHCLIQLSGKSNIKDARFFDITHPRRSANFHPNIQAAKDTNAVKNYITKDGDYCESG
# Description: as §1
# [4] = tested on: T4, Rep nickase domain of chickpea chlorotic dwarf virus
# T4 sequence (residues 1-124 of Rep, tag left off): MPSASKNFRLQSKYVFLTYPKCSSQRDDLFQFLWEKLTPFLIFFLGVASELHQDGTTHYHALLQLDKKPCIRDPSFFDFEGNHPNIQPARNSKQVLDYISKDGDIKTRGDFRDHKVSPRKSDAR
# Description: as §1
# [5] = tested on: T5, Rep nickase domain of faba bean necrotic yellows virus
# T5 sequence (residues 1-98 of Rep, tag left off): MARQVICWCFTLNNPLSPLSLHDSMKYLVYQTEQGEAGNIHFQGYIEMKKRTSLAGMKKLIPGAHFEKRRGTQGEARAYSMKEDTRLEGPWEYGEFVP
# Description: as §1
# [6] = tested on: T6, Rep nickase domain of maize striate mosaic virus
# T6 sequence (residues 1-117 of Rep, tag left off): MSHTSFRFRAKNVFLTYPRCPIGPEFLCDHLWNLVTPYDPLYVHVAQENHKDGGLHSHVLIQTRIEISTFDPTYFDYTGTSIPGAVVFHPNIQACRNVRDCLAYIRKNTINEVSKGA
# Description: as §1
# [7] = tested on: T7, Rep nickase domain of porcine circovirus 2
# T7 sequence (residues 2-116 of Rep, tag left off): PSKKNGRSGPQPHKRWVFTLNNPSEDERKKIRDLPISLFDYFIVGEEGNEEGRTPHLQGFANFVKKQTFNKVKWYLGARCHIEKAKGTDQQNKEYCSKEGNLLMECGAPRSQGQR
# Description: as §1
# [8] = tested on: T8, Rep nickase domain of tomato yellow leaf curl virus
# T8 sequence (residues 1-136 of Rep, tag left off): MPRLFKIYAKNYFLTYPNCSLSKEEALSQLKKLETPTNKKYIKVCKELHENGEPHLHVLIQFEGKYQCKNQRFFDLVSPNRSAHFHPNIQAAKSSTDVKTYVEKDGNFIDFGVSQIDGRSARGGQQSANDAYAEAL
# Description: as §1
# [9] = tested on: T9, Rep nickase domain of wheat dwarf virus
# T9 sequence (residues 1-137 of Rep, tag left off): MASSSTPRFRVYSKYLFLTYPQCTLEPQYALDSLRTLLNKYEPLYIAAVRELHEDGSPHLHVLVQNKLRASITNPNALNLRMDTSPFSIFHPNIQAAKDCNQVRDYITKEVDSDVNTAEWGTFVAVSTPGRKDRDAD
# Description: as §1
Sequence,uncleaved DNA left (log2) [1],uncleaved DNA left (log2) [2],uncleaved DNA left (log2) [3],uncleaved DNA left (log2) [4],uncleaved DNA left (log2) [5],uncleaved DNA left (log2) [6],uncleaved DNA left (log2) [7],uncleaved DNA left (log2) [8],uncleaved DNA left (log2) [9]
CAGTATG,0.107,0.134,-0.477,-0.247,-0.0615,-0.795,-0.32,0.0344,-0.0778
TGCGAAG,0.123,-0.0103,-0.155,0.11,-0.126,-0.114,0.024,-0.105,-0.0967
ATGCCCT,-0.0574,-0.0657,0.0996,-0.636,-0.0382,-0.124,-0.258,0.0211,0.106
AAGAGCC,0.0209,-0.0945,0.00527,0.0836,0.0515,-0.422,-0.0517,-0.121,-0.0183
TGTTCGA,0.000967,-0.0717,-0.212,-0.507,0.0893,-0.908,0.0892,0.0859,-0.0167
CGCCCTC,-0.00295,0.0373,0.228,0.232,-0.0766,0.336,-0.245,-0.111,-0.0652
GTGGCAT,0.0293,0.0823,0.841,1.96,-0.0904,2.26,0.22,-0.0504,0.116
TACGAAC,-0.0279,-0.0456,-0.26,-0.311,-0.0144,-0.827,-0.183,-0.197,-0.235
ATGTACC,-0.00505,0.0382,0.0168,-0.304,-0.031,-0.0895,-0.291,-0.0439,-0.0255
TGTGCTG,-0.0375,-0.156,0.0337,0.622,-0.1,0.987,-0.057,-0.23,-0.217
CGTGAGA,0.084,0.0621,-0.0301,-0.0485,0.0354,-0.739,-0.00961,0.12,-0.0463
TGCATTG,-0.00689,0.021,-0.376,-0.313,-0.0302,-0.58,0.0669,0.064,0.00619
GTGTACA,0.0573,0.124,0.294,0.982,0.00077,1.84,0.0964,0.191,0.0644
CCGGTCT,-0.117,-0.256,0.206,-0.391,-0.118,0.834,-0.0566,-0.172,-0.197
ATGTGGG,0.149,0.00421,-0.609,-0.601,0.0629,-0.837,0.176,0.133,-0.121
CAAAGGC,-0.0282,-0.00847,-0.191,-0.29,-0.00895,-1.08,0.077,-0.0368,-0.106
TTGTTAT,-0.383,-0.0105,0.244,-0.422,-0.0881,-0.187,-2.54,0.14,0.132
TAGCGCG,0.00742,0.000631,-0.759,-0.33,-0.0359,-0.949,0.0349,-0.0702,-0.123
ATCTGGC,0.0505,0.112,-0.125,-0.125,0.0501,-0.622,0.288,0.0143,0.0437

Sequence,uncleaved DNA left (log2) [1],uncleaved DNA left (log2) [2],uncleaved DNA left (log2) [3],uncleaved DNA left (log2) [4],uncleaved DNA left (log2) [5],uncleaved DNA left (log2) [6],uncleaved DNA left (log2) [7],uncleaved DNA left (log2) [8],uncleaved DNA left (log2) [9]
CCTACCC,-0.226,-0.088,-0.169,-1.92,0.0789,-0.433,-0.838,-0.19,-0.0391
ACGACCC,-0.15,0.0391,0.157,0.602,0.115,0.55,0.0801,0.0445,0.0792
CGCTGAG,0.0429,-0.14,-0.302,0.139,0.247,-0.505,0.368,0.152,0.265
GCCACCG,-0.0883,-0.062,-0.777,-0.596,-0.147,-0.841,0.0234,-0.166,-0.203
CATAGGG,0.0132,-0.0484,-0.595,-0.596,0.0354,-1.16,0.0603,0.0271,-0.177
CTAACCG,0.0121,-0.0208,-0.73,-0.983,0.11,-0.883,0.144,-0.0621,-0.128
GATTCTG,-0.0423,-0.0855,0.0998,0.68,-0.0155,0.922,0.149,-0.0918,-0.00811
TGCGCGT,0.0838,-0.121,-0.611,-0.657,0.105,-0.843,0.0868,-0.031,-0.208
ATTCAGT,-0.65,-0.364,-0.376,-0.947,-0.0889,-1.22,-2.46,-0.135,-0.12
GTTTTGT,-0.0634,0.106,0.321,0.881,0.129,1.52,0.0212,0.103,0.0631
CAGAACA,0.0076,0.0624,-0.0774,-2.03,0.0825,-0.451,-1.2,0.0199,0.0812
GGGTTGA,0.0311,-0.0674,0.695,1.78,-0.103,2.14,0.0476,-0.0468,0.00594
CTTGCAG,-0.0543,0.06,-0.843,-0.348,0.0609,-1.05,0.253,0.115,-0.0513
GGCGATG,0.00627,-0.171,0.0276,0.492,-0.127,1.64,0.0953,-0.135,-0.078
TGGATTC,0.0278,-0.0287,0.312,0.849,-0.125,0.869,0.16,0.126,0.127
GGCACAA,0.0172,0.0188,0.66,1.68,-0.0636,2,0.207,-0.0953,0.15
ACAGGCA,0.0721,0.0728,-0.418,-0.625,0.0346,-0.885,0.164,0.143,0.0215
ACGCAAG,-0.0423,-0.048,-0.709,-0.329,-0.0478,-1.2,0.0845,0.0131,-0.0902
TGTGCAT,-0.0634,-0.0113,0.296,0.895,-0.0228,0.916,0.055,0.00445,-0.00797

Sequence,uncleaved DNA left (log2) [1],uncleaved DNA left (log2) [2],uncleaved DNA left (log2) [3],uncleaved DNA left (log2) [4],uncleaved DNA left (log2) [5],uncleaved DNA left (log2) [6],uncleaved DNA left (log2) [7],uncleaved DNA left (log2) [8],uncleaved DNA left (log2) [9]
TACTGAA,-0.102,-0.0486,-0.00565,0.231,-0.0171,0.898,-2.13,0.00179,0.0918
GCCAACA,-0.0812,-0.0802,-0.0222,-0.981,-0.166,0.118,-0.02,-0.104,-0.0749
CCGCGCC,-0.0749,-0.299,-0.629,-0.65,-0.255,-0.701,-0.202,-0.128,-0.303
TCCTAAG,0.0377,0.126,-0.632,-0.557,0.0908,-1.16,0.174,0.105,0.0529
AGGCTGC,0.000202,0.0187,0.324,1.19,-0.0188,1.4,0.189,-0.0373,0.0299
TTATCCC,-0.00915,0.0113,0.0375,-0.0321,-0.0846,0.0518,-0.0132,0.0831,-0.0123
AACGACG,0.0479,-0.0208,-0.172,0.218,0.0349,0.341,0.13,-0.0953,-0.0332
GCGATTA,0.102,0.0738,0.129,0.385,0.0544,0.785,0.109,0.0368,0.0464
TAATTGG,-0.0222,-0.0535,-1.02,-0.863,0.0247,-1.2,0.0782,-0.0317,-0.0427
GTAATGG,-0.0248,0.0327,0.25,0.838,-0.0926,0.735,0.0845,-0.0132,-0.00807
CTGTAGC,0.0767,-0.0489,-0.396,-0.568,-0.116,-0.871,0.148,-0.0237,0.0659
CCATGCA,-0.0642,-0.0532,-0.75,-0.626,0.0626,-1.26,0.0687,0.0405,-0.255
CTATTAG,0.04,-0.00915,-0.784,-0.159,-0.0381,-1.05,0.148,0.0375,-0.116
CATAGTT,-0.0583,-1.79,-0.491,-2.8,0.0854,-0.94,-2.13,0.0092,-0.085
TACATTC,0.0567,0.104,-0.0657,-0.428,0.0379,-0.665,0.202,0.0913,0.0915
GCAACAC,0.0177,-0.0055,0.0251,0.0785,0.0351,-0.108,0.0376,0.0392,0.00379
GAATCCG,-0.0125,-0.0531,-0.846,-0.664,-0.00361,-0.933,0.0994,-0.0592,-0.117
AAACGAC,-0.0444,-0.117,-0.136,-0.101,-0.0168,-0.549,0.0453,-0.152,-0.0574
